Measurements: the supplement of paper PMC3334620
Over roughly 33,000 sequences, “E-score (-0.5 to 0.5)” has its median near -0.041; the highest 2% begin near 0.37. The list shows a part of the results.

Target: T1, Ecm22 (UniProt Q05958)
T1 sequence: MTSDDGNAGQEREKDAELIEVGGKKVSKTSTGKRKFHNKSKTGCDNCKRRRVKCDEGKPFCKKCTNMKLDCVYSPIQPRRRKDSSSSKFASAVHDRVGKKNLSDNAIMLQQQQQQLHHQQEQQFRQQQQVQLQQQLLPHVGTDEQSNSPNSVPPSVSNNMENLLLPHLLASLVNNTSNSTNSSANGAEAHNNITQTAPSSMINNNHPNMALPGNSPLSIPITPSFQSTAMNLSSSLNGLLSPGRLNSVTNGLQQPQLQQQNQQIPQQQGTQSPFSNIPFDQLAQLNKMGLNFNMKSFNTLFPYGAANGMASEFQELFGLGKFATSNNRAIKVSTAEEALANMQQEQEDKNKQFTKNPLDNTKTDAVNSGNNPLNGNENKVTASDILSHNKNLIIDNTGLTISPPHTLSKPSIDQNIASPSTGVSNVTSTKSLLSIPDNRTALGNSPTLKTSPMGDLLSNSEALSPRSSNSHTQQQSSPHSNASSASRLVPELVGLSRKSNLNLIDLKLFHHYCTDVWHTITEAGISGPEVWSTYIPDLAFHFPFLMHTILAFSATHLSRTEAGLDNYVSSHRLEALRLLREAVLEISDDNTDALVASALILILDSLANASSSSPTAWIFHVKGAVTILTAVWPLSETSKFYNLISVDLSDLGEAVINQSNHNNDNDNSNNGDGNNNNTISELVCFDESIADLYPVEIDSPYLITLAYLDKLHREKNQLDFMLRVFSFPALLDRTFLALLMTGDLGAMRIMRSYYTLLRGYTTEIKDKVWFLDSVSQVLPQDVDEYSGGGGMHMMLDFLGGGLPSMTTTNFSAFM
Assay: PBM E-score (8-mer binding enrichment) (E-score (-0.5 to 0.5)); higher = stronger / more preferred TF binding; most listed sequences are background and not binding sites
Settings: protein concentration: 200 nM; construct: GST-full length
Procedure: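 Universal 'all 10-mer' protein binding microarrays (Agilent AMADID 015681) probed with GST-tagged S. cerevisiae TFs (full-length or DBD) made by in vitro transcription/translation (PURExpress), about 100-200 nM. Bound TF was detected with fluorescent anti-GST. Each ungapped 8-mer (which stands for itself and its reverse complement) is scored by the PBM enrichment score (E-score), a modified Wilcoxon-Mann-Whitney statistic from -0.5 to +0.5, computed with the Universal PBM Analysis Suite. Scale: above 0.35 generally sequence-specific binding.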

Point of comparison: GCACCTCA, “PBM E-score” value -0.244. Against it:
- GTGAAAGA — higher, 0.0681
- TACCGCGA — higher, 0.144
- CTGACCTC — higher, -0.0554
- AGTAGTTG — higher, -0.162
- GGAATTTA — higher, 0.109
- CGGTGATA — higher, -0.0352
- AACCTCCC — higher, -0.0604
- CTATCGCC — higher, -0.0638
- AAGCAACT — higher, -0.0406
- CGCTAATC — higher, 0.172
- CCGTTAGC — higher, -0.0893
- CAGATTCC — lower, -0.263
- AAAAAACG — higher, 0.186
- ATACAATA — higher, 0.151
- CATGAGAG — higher, -0.123
- ACCCTCGC — higher, 0.194
- ACACCTCC — higher, -0.189
- AGGCGTTG — higher, -0.0496
- GTGGATCA — higher, -0.187
- ACCAATCT — higher, -0.132
- CTGATGAC — higher, -0.0143
- GCGGATGA — higher, -0.00903
- ACAACCCA — higher, 0.0104
- AGTGCATC — higher, -0.102
- AAGGGAGG — higher, -0.0153
- GTAGTTGA — higher, 0.0597
- CGTCGACG — higher, -0.156
- AAGGCGGA — higher, -0.228
- AGTGCACC — higher, -0.128
- ACACACAG — higher, -0.0269
- CATGCGGA — higher, 0.0553
- CCAGGATA — higher, 0.0487
- ACGTTATA — higher, 0.117
- CGCACCCA — higher, 0.0848
- CAGCACGC — higher, -0.0215
- ATGATGAG — higher, -0.124
- ACAACGGC — higher, 0.0125
- GTCTACTA — higher, 0.0292
- CGCTTCAG — higher, -0.0166
- CATCTTAA — higher, 0.0063
- CTCAACGC — higher, -0.215
- AACCTGAG — higher, -0.0795
- CGAGGTAG — higher, 0.0783
- AAATGACG — higher, -0.0464
- GCAGGCCA — higher, -0.00078
- GAATATGA — higher, -0.116
- AGGGTCTA — higher, -0.186
- GAAAGAGC — higher, 0.0482
- CCCAAACG — higher, 0.323
- ATGCACGG — higher, -0.148
- CCCACGGC — higher, -0.19
- ATTCAGCC — lower, -0.251
- ACGGGGTC — higher, 0.145
- ATCCCACA — higher, -0.176
- GGTGTAAC — higher, 0.132
- CGAAAGAC — higher, 0.0459
- ACGGCGCA — higher, 0.0596
- ACCGTTGG — lower, -0.266
- CATTAGTC — higher, -0.164
- ACATGAGG — higher, -0.236
- CTTTTACA — higher, -0.0936
- AGCTCCTG — higher, -0.168
- TGAGTTAA — higher, -0.185
- AATAAAGG — higher, -0.169
- AGGGCACC — higher, -0.209
- CCCAAGAG — higher, -0.153
- AGAAGCCG — higher, -0.0447
- GCTAGTCA — higher, -0.205
- AGCGACTC — higher, 0.135
- GTGGTGTA — higher, 0.0807
- AATAAATA — higher, 0.281
- GGTGAAAA — higher, -0.0425
- CGCAGAGA — higher, -0.0886
- CACCCGAG — higher, 0.197
- AGCTATTC — higher, -0.0449
- ACTTGGCT — higher, -0.179
- CTAACAGA — higher, -0.173
- GGCGCTCA — higher, -0.107
- GATCTCCC — higher, -0.0973
- ACAACAAT — higher, -0.109
- ATGCAGTC — higher, 0.0133
- ATATATCG — higher, 0.189
- AAGTCGTA — higher, 0.433
- CAGACCTC — higher, -0.0126
- ACTCCCTG — lower, -0.321
- GGGGGCAA — higher, -0.228
- AGTCAACA — higher, -0.0527
- CAGGGCAA — higher, -0.227
- AGAGCATC — higher, -0.128
- GGCGGCGA — higher, -0.157
- GTACAATA — higher, 0.0911
- TACGGCGA — higher, 0.357
- CCGAGTAC — higher, 0.24
- CCTATAAC — higher, -0.115
- CAAAATAG — higher, -0.111
- AGCGACAG — higher, 0.305
- AGCATGGA — lower, -0.283
- AACGTAAC — higher, 0.21
- CATCAAGA — higher, 0.0177
- AAAAGTCT — higher, -0.149
- TGAATACA — higher, -0.0376
- AGAACCGC — higher, 0.14
- AGACACTC — higher, -0.217
- CGTGTGGA — higher, -0.0117
- TACCGCTA — higher, 0.0699
- TAGCCGAA — higher, 0.0771
- CTTAGTCC — higher, -0.104
- TCACTAGA — higher, -0.0764
- CAGTAATG — higher, -0.161
- ATACTCTA — higher, 0.0524
- AACCCGTC — higher, 0.0827
- GCAGTAAC — higher, -0.036
- GTCGCCGA — higher, 0.0874
- ACTTCAAC — higher, -0.0327
- AAAAACTA — higher, 0.0932
- GAGACACA — higher, -0.237
- ATTAGATG — higher, 0.137
- CATTCAAC — higher, -0.0303
- CATCCGGC — higher, -0.122
- TAAGGGAA — higher, 0.171
- TTAAAGAA — higher, -0.0287
- CGTTATAC — higher, 0.335
- ACACCCAC — higher, -0.0883
- CCTCGGCC — higher, -0.0633
- CAAATAAG — higher, -0.177
- AGTAACTA — higher, 0.161
- AATTGAGG — higher, -0.113
- GCCCAAGA — higher, -0.196
- AAGATCCT — higher, -0.0266
- ATATATCA — higher, -0.0776
- GTGGTCCA — higher, -0.0936
- GTGCATAA — higher, -0.0669
- ACCATGAA — higher, -0.0282
- ACCAAACT — higher, 0.0445
- GCTTCCAC — higher, -0.238
- AGTTGGCC — higher, -0.165
- CGGGCGCC — higher, -0.0939
- ATGCCAGA — higher, -0.0243
- AGAGGGGC — higher, -0.187
- AATCACCC — higher, -0.054
- GCTGTAAC — higher, 0.0478
- AAAGATAC — higher, 0.109
- ACCGCCTC — higher, 0.0157
- ACGGGACA — higher, 0.182
- CAGATTTA — higher, 0.156
- AAGGCAAC — higher, -0.0255
- CTATTCAG — higher, -0.0277
- ACAGATCT — higher, -0.159
- AAGGTCGC — higher, 0.0632
- ACACTTGG — higher, -0.212
- GGTGCCAA — higher, -0.179
- ACTTCGAG — higher, -0.105
- ATCGGCTC — higher, 0.104
- AAACATCA — higher, -0.118
- AGGTAGGG — higher, -0.125
- AGACGTTA — higher, -0.139
- GACCTTGA — higher, -0.228
- AGAATTCC — higher, -0.0782
- TGTCAGAA — higher, -0.177
- GCTACAAA — higher, -0.0555
- ATGCAACC — higher, 0.027
- ACGTTGAA — higher, 0.0823
- AAGGATGA — higher, -0.113
- CATGCACG — higher, -0.0495
- CACTATTC — higher, -0.0887
- CTGGACCA — higher, -0.139
- AAGAGATG — higher, -0.171
- AAGTTCGG — higher, 0.0304
- GGATTAAC — higher, 0.0195
- CCCGCCTA — higher, -0.0427
- CGTCTAGC — higher, -0.0148
